EP0320984A2, “1,4-Dihydropyridine derivatives” (FUJIREBIO INC., priority 1987, dated 1989)
For part of these data: At least one read-out could not be matched to a standard name with certainty. For part of these data: At least one compound was matched to its structure with a doubt left.

Assays:
[1] = Hypotensive activity in conscious spontaneously hypertensive rats, arterial blood pressure via catheterized abdominal aorta; assay type: in vivo, Male spontaneously hypertensive rats (SHR); settings: injected into the caudal vein
[2] = test system: Thoracic aortas; assay: Inhibitory activity on KCl-induced contraction of aorta (helical strips of thoracic aorta); design: species or system male rabbits; settings: 10^-6M, 60min after addition; 30 mM KCl, rabbit aorta strips, 37°C
Procedure: 2. Experiment for inhibitory activity on KCl-induced contraction of aorta: Thoracic aortas were isolated from male rabbits and cut into helical strips. The preparations were mounted vertically in organ baths containing 30 ml of Krebs- Henseleit solution. […] Test and reference compounds were added to the bath 30 minutes after KCl treatment.

| Structure (SMILES) | Hypotensive effect - Max ([1]; 100μg, conscious SHR) | Inhibitory effect on KCl-induced contraction [2] | Hypotensive effect - Max ([1]; 30μg, conscious SHR (reference compounds)) |
| --- | --- | --- | --- |
| COC(=O)C1=C(C)NC(C)=C(C(=O)OC/C=C/c2ccccc2Cn2ccnc2)C1c1cccc([N+](=O)[O-])c1 (stereo not drawn) [Example 20, (E)-3-{2-(1-imidazolylmethyl)phenyl}-2-propen-1-yl methyl 1,4-dihydro-2,6-dimethyl-4-(3-nitrophenyl)pyridine-3,5-dicarboxylate] | 37.5 mm Hg | 68.8% |  |
| COC(=O)C1=C(C)NC(C)=C(C(=O)OC/C=C/c2cccc(Cn3ccnc3)n2)C1c1cccc([N+](=O)[O-])c1 (stereo not drawn) [Example 25, (E)-3-{6-(1-imidazolylmethyl)pyridine-2-yl}-2-propen-1-yl methyl 1,4-dihydro-2,6-dimethyl-4-(3-nitrophenyl)pyridine-3,5-dicarboxylate] | 12.5 mm Hg | 88.3% |  |
| COC(=O)C1=C(C)NC(C)=C(C(=O)OC/C=C/c2ccc(Cn3ccnc3)cc2)C1c1cccc(C(F)(F)F)c1 (stereo not drawn) [Example 17, (E)-3-{4-(1-imidazolylmethyl)phenyl}-2-propen-1-yl methyl 1,4-dihydro-2,6-dimethyl-4-(3-trifluoromethylphenyl)pyridine-3,5-dicarboxylate] | 30.0 mm Hg | 55.1% |  |
| COC(=O)C1=C(C)NC(C)=C(C(=O)OC/C=C/c2ccc(Cn3ccnc3)cc2)C1c1ccccc1C#N (stereo not drawn) [Example 18, (E)-3-{4-(1-imidazolylmethyl)phenyl}-2-propen-1-yl methyl 1,4-dihydro-2,6-dimethyl-4-(2-cyanophenyl)pyridine-3,5-dicarboxylate] | 22.5 mm Hg | 88.2% |  |
| COC(=O)C1=C(C)NC(C)=C(C(=O)OC/C=C/c2cccc(Cn3ccnc3)c2)C1c1cccc([N+](=O)[O-])c1 (stereo not drawn) [Example 21, (E)-3-{3-(1-imidazolylmethyl)phenyl}-2-propen-1-yl methyl 1,4-dihydro-2,6-dimethyl-4-(3-nitrophenyl)pyridine-3,5-dicarboxylate] | 15.0 mm Hg | 37.8% |  |
| COC(=O)C1=C(C)NC(C)=C(C(=O)OC/C=C/C=C/c2ccc(Cn3ccnc3)cc2)C1c1cccc([N+](=O)[O-])c1 (stereo not drawn) [Example 19, 5-{4-(1-imidazolylmethyl)phenyl}-(E)-2,(E)-4-pentadien-1-yl methyl 1,4-dihydro-2,6-dimethyl-4-(3-nitrophenyl)pyridine-3,5-dicarboxylate] | 25.0 mm Hg |  |  |
| COC(=O)C1=C(C)NC(C)=C(C(=O)OC/C=C/c2ccc(Cn3ccnc3)cc2)C1c1ccnc2ccccc12 (stereo not drawn) [Example 23, (E)-3-{4-(1-imidazolylmethyl)phenyl}-2-propen-1-yl methyl 1,4-dihydro-2,6-dimethyl-4-(4-quinolyl)pyridine-3,5-dicarboxylate] | 44.0 mm Hg | 21.6% |  |
| COC(=O)C1=C(C)NC(C)=C(C(=O)OCCON=Cc2ccc(Cn3ccnc3)cc2)C1c1cccc([N+](=O)[O-])c1 (stereo not drawn) [Example 26, 2-[{4-(1-imidazolylmethyl)benzylideneamino}oxy]ethyl methyl 1,4-dihydro-2,6-dimethyl-4-(3-nitrophenyl)pyridine3,5-dicarboxylate] | 30.0 mm Hg | 74.8% |  |
| COC(=O)C1=C(C)NC(C)=C(C(=O)OC/C=C/c2ccc(C(C)n3ccnc3)cc2)C1c1cccc([N+](=O)[O-])c1 (stereo not drawn) [Example 24, (E)-3-{4-{1-(1-imidazolyl)ethyl}phenyl}-2-propen-1-yl methyl 1,4-dihydro-2,6-dimethyl-4-(3-nitrophenyl)pyridine-3,5-dicarboxylate] | 35.0 mm Hg |  |  |
| CC1=C(C(=O)OC/C=C/c2ccccc2)C(c2cccc([N+](=O)[O-])c2)C(C(=O)OC/C=C/c2ccc(Cn3ccnc3)cc2)=C(C)N1 (stereo not drawn) [Example 14, (E)-cinnamyl (E)-3-{4-(1-imidazolylmethyl)phenyl}-2-propen-1-yl 1,4-dihydro-2,6-dimethyl-4-(3-nitrophenyl)pyridine-3,5-dicarboxylate] | 36.0 mm Hg | 25.6% |  |
| COC(=O)C1=C(C)NC(C)=C(C(=O)OCCN(C)Cc2ccccc2)C1c1cccc([N+](=O)[O-])c1.Cl (stereo not drawn) [NICARDIPINE, 1,4-dihydro-2,6-dimethyl-4-(3-nitrophenyl)pyridine-3,5-dicarboxylic acid-3-[2-(N-benzyl-N-methylamino)ethyl]ester-5-methyl ester hydrochloride, reference compound] |  |  | 100 (30μg) mm Hg |
| COC(=O)C1=C(C)NC(C)=C(C(=O)OC/C=C/c2ccc(Cn3ccnc3)cc2)C1c1cccnc1 (stereo not drawn) [Example 22, (E)-3-{4-(1-imidazolylmethyl)phenyl}-2-propen-1-yl methyl 1,4-dihydro-2,6-dimethyl-4-(3-pyridyl)pyridine-3,5-dicarboxylate] | 38.0 mm Hg | 11.0% |  |
| COCCOC(=O)C1=C(C)NC(C)=C(C(=O)OC/C=C/c2ccc(Cn3ccnc3)cc2)C1c1cccc([N+](=O)[O-])c1 (stereo not drawn) [Example 16, (E)-3-{4-(1-imidazolylmethyl)phenyl}-2-propen-1-yl 2-methoxyethyl 1,4-dihydro-2,6-dimethyl-4-(3-nitrophenyl)pyridine-3,5-dicarboxylate] | 34.0 mm Hg | 27.3% |  |
| C/C=C/C=C/COC(=O)C1=C(C)NC(C)=C(C(=O)OC/C=C/c2ccc(Cn3ccnc3)cc2)C1c1cccc([N+](=O)[O-])c1 (stereo not drawn) [Example 15, (E)-2,(E)-4-hexadien-1-yl (E)-3-{4-(1-imidazolylmethyl)phenyl}2-propen-1-yl 1,4-dihydro-2,6-dimethyl-4-(3-nitrophenyl)pyridine-3,5-dicarboxylate] | 25.0 mm Hg |  |  |
